From the supplement of paper PMC11876631
± gives the standard deviation of the averaged measurements. Laboratory Escherichia coli strains with one amino-acid change in an essential protein, pooled on minimal glucose agar with carbenicillin or gentamicin at twice the control MIC (plus kanamycin and chloramphenicol for the plasmids), 48 h. Fold change of barcode share against drug-free plates; higher = less susceptible. Active = above 20 in both replicates (the paper's putatively resistant). '<' = one read or none on drug, '>' = one read or none on a drug-free plate. Shares are relative, so most strains fall below 1 when a few take over. Listed are strains with at least 15 reads on both drug-free plates, and hits; most hits rest on fewer reference reads. Replicate rank correlation about 0.5. Edits are read from barcodes.

B1: cysS M294A (protein)
chain: MLKIFNTLTRQKEEFKPIHAGEVGMYVCGITVYDLCHIGHGRTFVAFDVVARYLRFLGYKLKYVRNITDIDDKIIKRANENGESFVAMVDRMIAEMHKDFDALNILRPDMEPRATHHIAEIIELTEQLIAKGHAYVADNGDVMFDVPTDPTYGVLSRQDLDQLQAGARVDVVDDKRNPMDFVLWKMSKEGEPSWPSPWGAGRPGWHIECSAMNCKQLGNHFDIHGGGSDLMFPHHENEIAQSTCAHDGQYVNYWMHSGMVMVDREKMSKSLGNFFTVRDVLKYYDAETVRYFLASGHYRSQLNYSEENLKQARAALERLYTALRGTDKTVAPAGGEAFEARFIEAMDDDFNTPEAYSVLFDMAREVNRLKAEDMAAANAMASHLRKLSAVLGLLEQEPEAFLQSGAQADDSEVAEIEALIQQRLDARKAKDWAAADAARDRLNEMGIVLEDGPQGTTWRRK
B2: cysS M294Q (protein)
chain: MLKIFNTLTRQKEEFKPIHAGEVGMYVCGITVYDLCHIGHGRTFVAFDVVARYLRFLGYKLKYVRNITDIDDKIIKRANENGESFVAMVDRMIAEMHKDFDALNILRPDMEPRATHHIAEIIELTEQLIAKGHAYVADNGDVMFDVPTDPTYGVLSRQDLDQLQAGARVDVVDDKRNPMDFVLWKMSKEGEPSWPSPWGAGRPGWHIECSAMNCKQLGNHFDIHGGGSDLMFPHHENEIAQSTCAHDGQYVNYWMHSGMVMVDREKMSKSLGNFFTVRDVLKYYDAETVRYFLQSGHYRSQLNYSEENLKQARAALERLYTALRGTDKTVAPAGGEAFEARFIEAMDDDFNTPEAYSVLFDMAREVNRLKAEDMAAANAMASHLRKLSAVLGLLEQEPEAFLQSGAQADDSEVAEIEALIQQRLDARKAKDWAAADAARDRLNEMGIVLEDGPQGTTWRRK
B3: cysS M96Q (protein)
chain: MLKIFNTLTRQKEEFKPIHAGEVGMYVCGITVYDLCHIGHGRTFVAFDVVARYLRFLGYKLKYVRNITDIDDKIIKRANENGESFVAMVDRMIAEQHKDFDALNILRPDMEPRATHHIAEIIELTEQLIAKGHAYVADNGDVMFDVPTDPTYGVLSRQDLDQLQAGARVDVVDDKRNPMDFVLWKMSKEGEPSWPSPWGAGRPGWHIECSAMNCKQLGNHFDIHGGGSDLMFPHHENEIAQSTCAHDGQYVNYWMHSGMVMVDREKMSKSLGNFFTVRDVLKYYDAETVRYFLMSGHYRSQLNYSEENLKQARAALERLYTALRGTDKTVAPAGGEAFEARFIEAMDDDFNTPEAYSVLFDMAREVNRLKAEDMAAANAMASHLRKLSAVLGLLEQEPEAFLQSGAQADDSEVAEIEALIQQRLDARKAKDWAAADAARDRLNEMGIVLEDGPQGTTWRRK
B4: cysS L387D (protein)
chain: MLKIFNTLTRQKEEFKPIHAGEVGMYVCGITVYDLCHIGHGRTFVAFDVVARYLRFLGYKLKYVRNITDIDDKIIKRANENGESFVAMVDRMIAEMHKDFDALNILRPDMEPRATHHIAEIIELTEQLIAKGHAYVADNGDVMFDVPTDPTYGVLSRQDLDQLQAGARVDVVDDKRNPMDFVLWKMSKEGEPSWPSPWGAGRPGWHIECSAMNCKQLGNHFDIHGGGSDLMFPHHENEIAQSTCAHDGQYVNYWMHSGMVMVDREKMSKSLGNFFTVRDVLKYYDAETVRYFLMSGHYRSQLNYSEENLKQARAALERLYTALRGTDKTVAPAGGEAFEARFIEAMDDDFNTPEAYSVLFDMAREVNRLKAEDMAAANAMASHLRKDSAVLGLLEQEPEAFLQSGAQADDSEVAEIEALIQQRLDARKAKDWAAADAARDRLNEMGIVLEDGPQGTTWRRK
B5: cysS L387Q (protein)
chain: MLKIFNTLTRQKEEFKPIHAGEVGMYVCGITVYDLCHIGHGRTFVAFDVVARYLRFLGYKLKYVRNITDIDDKIIKRANENGESFVAMVDRMIAEMHKDFDALNILRPDMEPRATHHIAEIIELTEQLIAKGHAYVADNGDVMFDVPTDPTYGVLSRQDLDQLQAGARVDVVDDKRNPMDFVLWKMSKEGEPSWPSPWGAGRPGWHIECSAMNCKQLGNHFDIHGGGSDLMFPHHENEIAQSTCAHDGQYVNYWMHSGMVMVDREKMSKSLGNFFTVRDVLKYYDAETVRYFLMSGHYRSQLNYSEENLKQARAALERLYTALRGTDKTVAPAGGEAFEARFIEAMDDDFNTPEAYSVLFDMAREVNRLKAEDMAAANAMASHLRKQSAVLGLLEQEPEAFLQSGAQADDSEVAEIEALIQQRLDARKAKDWAAADAARDRLNEMGIVLEDGPQGTTWRRK
B6: cysS M96A (protein)
chain: MLKIFNTLTRQKEEFKPIHAGEVGMYVCGITVYDLCHIGHGRTFVAFDVVARYLRFLGYKLKYVRNITDIDDKIIKRANENGESFVAMVDRMIAEAHKDFDALNILRPDMEPRATHHIAEIIELTEQLIAKGHAYVADNGDVMFDVPTDPTYGVLSRQDLDQLQAGARVDVVDDKRNPMDFVLWKMSKEGEPSWPSPWGAGRPGWHIECSAMNCKQLGNHFDIHGGGSDLMFPHHENEIAQSTCAHDGQYVNYWMHSGMVMVDREKMSKSLGNFFTVRDVLKYYDAETVRYFLMSGHYRSQLNYSEENLKQARAALERLYTALRGTDKTVAPAGGEAFEARFIEAMDDDFNTPEAYSVLFDMAREVNRLKAEDMAAANAMASHLRKLSAVLGLLEQEPEAFLQSGAQADDSEVAEIEALIQQRLDARKAKDWAAADAARDRLNEMGIVLEDGPQGTTWRRK
B7: cysS M294D (protein)
chain: MLKIFNTLTRQKEEFKPIHAGEVGMYVCGITVYDLCHIGHGRTFVAFDVVARYLRFLGYKLKYVRNITDIDDKIIKRANENGESFVAMVDRMIAEMHKDFDALNILRPDMEPRATHHIAEIIELTEQLIAKGHAYVADNGDVMFDVPTDPTYGVLSRQDLDQLQAGARVDVVDDKRNPMDFVLWKMSKEGEPSWPSPWGAGRPGWHIECSAMNCKQLGNHFDIHGGGSDLMFPHHENEIAQSTCAHDGQYVNYWMHSGMVMVDREKMSKSLGNFFTVRDVLKYYDAETVRYFLDSGHYRSQLNYSEENLKQARAALERLYTALRGTDKTVAPAGGEAFEARFIEAMDDDFNTPEAYSVLFDMAREVNRLKAEDMAAANAMASHLRKLSAVLGLLEQEPEAFLQSGAQADDSEVAEIEALIQQRLDARKAKDWAAADAARDRLNEMGIVLEDGPQGTTWRRK
B8: cysS L387W (protein)
chain: MLKIFNTLTRQKEEFKPIHAGEVGMYVCGITVYDLCHIGHGRTFVAFDVVARYLRFLGYKLKYVRNITDIDDKIIKRANENGESFVAMVDRMIAEMHKDFDALNILRPDMEPRATHHIAEIIELTEQLIAKGHAYVADNGDVMFDVPTDPTYGVLSRQDLDQLQAGARVDVVDDKRNPMDFVLWKMSKEGEPSWPSPWGAGRPGWHIECSAMNCKQLGNHFDIHGGGSDLMFPHHENEIAQSTCAHDGQYVNYWMHSGMVMVDREKMSKSLGNFFTVRDVLKYYDAETVRYFLMSGHYRSQLNYSEENLKQARAALERLYTALRGTDKTVAPAGGEAFEARFIEAMDDDFNTPEAYSVLFDMAREVNRLKAEDMAAANAMASHLRKWSAVLGLLEQEPEAFLQSGAQADDSEVAEIEALIQQRLDARKAKDWAAADAARDRLNEMGIVLEDGPQGTTWRRK
B9: acpS V122A (protein)
chain: MAILGLGTDIVEIARIEAVIARSGDRLARRVLSDNEWAIWKTHHQPVRFLAKRFAVKEAAAKAFGTGIRNGLAFNQFEVFNDELGKPRLRLWGEALKLAEKLGVANMHVTLADERHYACATAIIES
B10: acpS I123A (protein)
chain: MAILGLGTDIVEIARIEAVIARSGDRLARRVLSDNEWAIWKTHHQPVRFLAKRFAVKEAAAKAFGTGIRNGLAFNQFEVFNDELGKPRLRLWGEALKLAEKLGVANMHVTLADERHYACATVAIES
B11: cysJ I458P (protein)
chain: MTTQVPPSALLPLNPEQLARLQAATTDLTPTQLAWVSGYFWGVLNQQPAALAATPAPAAEMPGITIISASQTGNARRVAEALRDDLLAAKLNVKLVNAGDYKFKQIASEKLLIVVTSTQGEGEPPEEAVALHKFLFSKKAPKLENTAFAVFSLGDSSYEFFCQSGKDFDSKLAELGGERLLDRVDADVEYQAAASEWRARVVDALKSRAPVAAPSQSVATGAVNEIHTSPYSKDAPLVASLSVNQKITGRNSEKDVRHIEIDLGDSGMRYQPGDALGVWYQNDPALVKELVELLWLKGDEPVTVEGKTLPLNEALQWHFELTVNTANIVENYATLTRSETLLPLVGDKAKLQHYAATTPIVDMVRFSPAQLDAEALINLLRPLTPRLYSIASSQAEVENEVHVTVGVVRYDVEGRARAGGASSFLADRVEEEGEVRVFIEHNDNFRLPANPETPVIMPGPGTGIAPFRAFMQQRAADEAPGKNWLFFGNPHFTEDFLYQVEWQRYVKDGVLTRIDLAWSRDQKEKVYVQDKLREQGAELWRWINDGAHIYVCGDANRMAKDVEQALLEVIAEFGGMDTEAADEFLSELRVERRYQRDVY
B12: cysJ L566D (protein)
chain: MTTQVPPSALLPLNPEQLARLQAATTDLTPTQLAWVSGYFWGVLNQQPAALAATPAPAAEMPGITIISASQTGNARRVAEALRDDLLAAKLNVKLVNAGDYKFKQIASEKLLIVVTSTQGEGEPPEEAVALHKFLFSKKAPKLENTAFAVFSLGDSSYEFFCQSGKDFDSKLAELGGERLLDRVDADVEYQAAASEWRARVVDALKSRAPVAAPSQSVATGAVNEIHTSPYSKDAPLVASLSVNQKITGRNSEKDVRHIEIDLGDSGMRYQPGDALGVWYQNDPALVKELVELLWLKGDEPVTVEGKTLPLNEALQWHFELTVNTANIVENYATLTRSETLLPLVGDKAKLQHYAATTPIVDMVRFSPAQLDAEALINLLRPLTPRLYSIASSQAEVENEVHVTVGVVRYDVEGRARAGGASSFLADRVEEEGEVRVFIEHNDNFRLPANPETPVIMIGPGTGIAPFRAFMQQRAADEAPGKNWLFFGNPHFTEDFLYQVEWQRYVKDGVLTRIDLAWSRDQKEKVYVQDKLREQGAELWRWINDGAHIYVCGDANRMAKDVEQADLEVIAEFGGMDTEAADEFLSELRVERRYQRDVY

The proteins below were run against Escherichia coli (laboratory strain) (assay: barcode share on antibiotic plates over drug-free plates; higher = less susceptible). Settings: antibiotic: carbenicillin; 2× MIC (3.1 µg/mL).
Protocol: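 A pool of E. coli strains, each edited to carry one amino-acid change in an essential protein, was grown for 48 h on minimal glucose agar with or without antibiotic; strain barcodes were sequenced; mean of two replicates.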

**Q.** With B1 as the protein, how does the “fold change of barcode share” value read?
**A.** Its value is 1.4 ± 0.69.

**Q.** For B2, which “fold change of barcode share” value is on record?
**A.** Its value is 0.496 ± 0.037.

**Q.** Which “fold change of barcode share” value does the source give for B3 here?
**A.** The value was 1.29 ± 0.69.

**Q.** Which “fold change of barcode share” value does the source give for B4 here?
**A.** The value was 0.347 ± 0.029.

**Q.** For B5, which “fold change of barcode share” value is on record?
**A.** Its value is 0.677 ± 0.56.

**Q.** B6 was tested. Which “fold change of barcode share” value did it give?
**A.** Its value is 0.349 ± 0.1.

**Q.** Which “fold change of barcode share” value does the source give for B7 here?
**A.** The value was 0.539 ± 0.056.

**Q.** Which “fold change of barcode share” value does the source give for B8 here?
**A.** The value was 0.198 ± 0.1.

**Q.** B9 was tested. Which “fold change of barcode share” value did it give?
**A.** Its value is 0.829 ± 0.19.

**Q.** How did the “fold change of barcode share” value turn out when B10 was run?
**A.** Its value is 0.39 ± 0.091.

**Q.** For B11, which “fold change of barcode share” value is on record?
**A.** The value was 1.07 ± 0.1.

**Q.** How did the “fold change of barcode share” value turn out when B12 was run?
**A.** The value was 0.656 ± 0.45.

Same assay, conditions: antibiotic: gentamicin; 2× MIC (MIC 0.45 µg/mL)

**Q.** With B1 as the protein, how does the “fold change of barcode share” value read?
**A.** Its value is 0.0439 ± 0.056.

**Q.** How did the “fold change of barcode share” value turn out when B2 was run?
**A.** Its value is 0.00706 ± 0.00086.

**Q.** With B5 as the protein, how does the “fold change of barcode share” value read?
**A.** Its value is < 0.0108.

**Q.** B6 was tested. Which “fold change of barcode share” value did it give?
**A.** Its value is 0.0273 ± 0.017.

**Q.** For B8, which “fold change of barcode share” value is on record?
**A.** The value was 0.024 ± 0.0081.

**Q.** B9 was tested. Which “fold change of barcode share” value did it give?
**A.** Its value is 0.325 ± 0.39.

**Q.** B10 was tested. Which “fold change of barcode share” value did it give?
**A.** The value was 0.0189 ± 0.021.

**Q.** B12 was tested. Which “fold change of barcode share” value did it give?
**A.** Its value is 0.0171 ± 0.011.
